# PubChem BioAssay (Tox21)
# Values joined by “and” are separate entries in the source; they are usually repeats but may differ in a detail not shown here. Identical values can stand only once. The inconclusive results got no clear call from the source; some entries with a clear call stand among them for comparison. Active and inactive are the calls of the source. Unless noted, calls follow the shape of the dose curve; as a rule, active = well fitted curve in the direction sought with a large enough effect in the repeat runs; inconclusive = weak or mixed curves; inactive = no such curve, though single readings can be large; an effect the other way counts as inactive or inconclusive.
# What was measured:
# [1] = qHTS assay to test for compound auto fluorescence at 460 nm (blue) in HepG2 cell free culture (AID 720685)
# In short: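 Compound (23 nL) or DMSO pinned into cell-free MEM with 10% FBS; blue fluorescence read at 405/460 nm excitation/emission, expressed as auto-fluorescence equivalency to triamterene.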
# [2] = biological target: Glucocorticoid receptor (Homo sapiens) (UniProt P04150); test: qHTS assay to identify small molecule agonists of the glucocorticoid receptor (GR) signaling pathway (AID 720691; active = well fitted activation curve with a large enough effect in the signal ratio in the repeat runs, not every such curve was filed as active; inconclusive = weak or mixed curves, or effect the other way; inactive = no such curve, though single readings can be large or run the other way; the % refers to the signal ratio); conditions: GR-bla HeLa, beta-lactamase reporter ratio, 18 h; at 62.4 µM (top of the series)
# Chain of UniProt P04150 (P04150 whole entry, looked up): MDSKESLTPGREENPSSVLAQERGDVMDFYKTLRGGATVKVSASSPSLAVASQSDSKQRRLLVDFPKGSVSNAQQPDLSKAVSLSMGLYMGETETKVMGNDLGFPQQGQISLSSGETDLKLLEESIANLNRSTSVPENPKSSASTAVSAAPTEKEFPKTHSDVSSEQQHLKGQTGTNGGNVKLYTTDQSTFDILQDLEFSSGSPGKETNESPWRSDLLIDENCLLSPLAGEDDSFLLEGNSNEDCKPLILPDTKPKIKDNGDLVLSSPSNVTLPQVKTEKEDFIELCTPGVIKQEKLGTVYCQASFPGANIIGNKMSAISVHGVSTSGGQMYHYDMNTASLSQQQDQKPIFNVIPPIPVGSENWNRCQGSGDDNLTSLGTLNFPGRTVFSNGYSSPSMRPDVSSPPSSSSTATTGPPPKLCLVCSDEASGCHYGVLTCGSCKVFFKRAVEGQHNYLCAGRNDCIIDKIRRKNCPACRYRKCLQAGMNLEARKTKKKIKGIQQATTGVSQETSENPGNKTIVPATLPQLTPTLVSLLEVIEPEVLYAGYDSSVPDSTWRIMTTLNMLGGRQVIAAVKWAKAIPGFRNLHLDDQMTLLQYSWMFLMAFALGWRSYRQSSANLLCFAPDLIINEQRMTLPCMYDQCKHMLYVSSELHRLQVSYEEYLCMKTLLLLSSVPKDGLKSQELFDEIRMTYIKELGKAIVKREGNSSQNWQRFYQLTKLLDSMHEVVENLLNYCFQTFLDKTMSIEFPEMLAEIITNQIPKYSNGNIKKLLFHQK
# In short: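 GR-bla HeLa cells carrying a GRE-driven beta-lactamase reporter, exposed to compounds for 18 h at 37 C. Reporter activation read as fluorescence after 2 h with LiveBLAzer B/G FRET substrate at room temperature.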
# [3] = biological target: Glucocorticoid receptor (Homo sapiens) (UniProt P04150); test: qHTS assay to identify small molecule antagonists of the glucocorticoid receptor (GR) signaling pathway (AID 720692; active = well fitted inhibition curve with a large enough effect in the signal ratio in the repeat runs, not every such curve was filed as active; inconclusive = weak or mixed curves, or effect the other way; inactive = no such curve, though single readings can be large or run the other way; the % refers to the signal ratio); conditions: GR-bla HeLa, beta-lactamase FRET ratio, dexamethasone-stimulated, 18 h
# In short: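 GR-bla HeLa cells carrying a GRE-driven beta-lactamase reporter received compound after 4 h plating, then dexamethasone (5 nM final). After 18 h at 37C, the FRET substrate was loaded for 2 h at room temperature and fluorescence read.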
# [4] = qHTS assay to identify small molecule antagonists of the glucocorticoid receptor (GR) signaling pathway - cell viability counter screen (AID 720693); conditions: GR-bla HeLa viability, CellTiter-Glo luminescence, 18 h, with 5 nM dexamethasone present; viability change, negative = cytotoxic: at 58.5 µM (top of the series); also: nearly all actives have a fitted effect of over 55% in size
# % is scaled to controls: 0 for no effect and ±100 for the full control effect.
structure (smiles),measurement,setting,value
OCCN(CCO)CCN(CCO)CCO,Potency,[1],inactive
C=CCOC(=O)C(=C)C,activation,[2],inactive: 1.25%
same,"activity change, negative = inhibition",[3]; at 78.9 µM (top of the series),inactive: 2.98%
CCOC(=O)C(C)(C)Oc1ccc(Cl)cc1,Potency,[4],inactive
CCCCCCCC/C=C\CCCCCCCC(=O)O,"activity change, negative = inhibition",[3]; at 58.5 µM (top of the series),inconclusive: -1.23% and inconclusive: -31.4%
same,"activity change, negative = inhibition",[3]; at 78.9 µM (top of the series),inconclusive: 16.1%
